In PubChem BioAssay (NCATS):
The other results are listed elsewhere or left out. Further columns of the screen follow, without active or inactive calls. Potencies come from curve fits of mixed quality, noted in brackets.

Assay: qHTS drug screen for cell cycle checkpoint inhibitors in PARPi-resistant BRCA-mutant ovarian cancer cell lines. (AID 1963452)
Conditions: PEO1/OlaR viability, CellTiter-Glo luminescence, 96 h
In short: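 PEO1, PEO4 and PEO1/OlaR ovarian cancer cells, 600 per well, exposed 96 h at 37C to a dilution series. Viability read by CellTiter-Glo luminescence, normalized to DMSO and empty wells; activity summarized as Z-AUC.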

[1] = measured here: PEO1 parental viability
Tags describe the fitted curve by direction and shape.

SMILES	AC50 [1]	AC50 (measured here: PEO4 viability)
CCCCCCOC(=O)NC(=N)c1ccc(NCc2nc3cc(C(=O)N(CCC(=O)OCC)c4ccccn4)ccc3n2C)cc1	15.5 µM [falling, partial curve, poor fit]	12.3 µM [falling, partial curve, poor fit]
CO[C@H]1/C=C/O[C@@]2(C)Oc3c(C)c(O)c4c(O)c(c5c(nc6cc(C)ccn65)c4c3C2=O)NC(=O)/C(C)=C\C=C\[C@H](C)[C@H](O)[C@@H](C)[C@@H](O)[C@@H](C)[C@H](OC(C)=O)[C@@H]1C	5.49 µM [falling, full curve]	5.49 µM [falling, full curve]
CN1C/C=C/CCOc2cccc(c2)-c2ccnc(n2)Nc2cccc(c2)C1	0.245 µM [falling, full curve]	0.389 µM [falling, full curve]
Cc1ccc(S(=O)(=O)Nc2cc(C(F)(F)F)ccc2C(=O)Nc2nc(-c3ccccc3)cs2)cc1	9.77 µM [falling, partial curve]	0.871 µM [falling, full curve]
C[C@H]1[C@H](O)O[C@@H]2O[C@@]3(C)CC[C@H]4[C@H](C)CC[C@@H]1[C@@]24OO3	8.71 µM [falling, partial curve]	24.5 µM [falling, single point]
CNCCCOc1cc(F)c(-c2c(Cl)nc3ncnn3c2N[C@@H](C)C(F)(F)F)c(F)c1	0.0195 µM [falling, full curve]	0.049 µM [falling, full curve]
C[C@]12CC[C@H](O)CC1=CCC1C2CC[C@]2(C)C(n3cnc4ccccc43)=CCC12 (stereo partly specified)	15.5 µM [falling, single point]	13.8 µM [falling, partial curve]
Cc1[nH]c2ccc(F)cc2c1-c1nc2c3cccnc3c3ncccc3c2[nH]1	0.398 µM [falling, full curve]	0.282 µM [falling, full curve]
COc1cccc(OCCCN)c1-c1cc(Nc2cnc(C#N)cn2)n[nH]1	0.0123 µM [falling, full curve]	0.0155 µM [falling, full curve]
Cc1ccc(C(=O)Nc2ccc(CN3CCN(C)CC3)c(C(F)(F)F)c2)cc1C#Cc1cnc2[nH]ncc2c1	4.9 µM [falling, full curve]	3.09 µM [falling, full curve]
Cc1nc(NC(=O)N2CCC[C@H]2C(N)=O)sc1-c1csc(C(C)(C)C)n1	11 µM [falling, partial curve]	9.77 µM [falling, partial curve, poor fit]
O=C(NO)c1cnc(NC2(c3ccccc3)CC2)nc1	15.5 µM [falling, single point]	19.5 µM [falling, partial curve]
CS(=O)(=O)c1ccc(-c2cnc(N)c(C(=O)Nc3ccccc3)n2)cc1	1.74 µM [falling, full curve, poor fit]	3.89 µM [falling, full curve]
O=C(C1CC1)N1CC[C@@H](Cn2c(-c3ccc(-c4ccc5occc5c4)cc3)nc3cnccc32)C1	13.8 µM [falling, single point]	11 µM [falling, partial curve, poor fit]
COc1ccc(S(=O)(=O)N(C(C)=O)c2ccccc2/C=C/c2cc[n+]([O-])cc2)cc1	0.977 µM [falling, full curve]	0.977 µM [falling, full curve]
CCn1c(=O)c(-c2ccc(Cl)cc2Cl)cc2cnc(Nc3ccc(N4CCNCC4)c(F)c3)nc21	2.45 µM [falling, full curve]	3.09 µM [falling, full curve]
COCCN1CCN(Cc2ccc(-c3n[nH]c4c3C(=O)c3c(NC(=O)NN5CCOCC5)cccc3-4)cc2)CC1	19.5 µM [falling, partial curve, poor fit]	21.9 µM [falling, partial curve, poor fit]
CN1CCN(c2ccc3nc(-c4cc(C(C)(C)C)c(OCCCC(=O)NCCCN=[N+]=[N-])c(C(C)(C)C)c4)[nH]c3c2)CC1	7.76 µM [falling, partial curve]	3.47 µM [falling, full curve]
